Tests used:
[1] = tested on: HCT-116 colorectal cancer cell line; test: MTT cytotoxicity assay against HCT-116; assay type: cell-based; details: Homo sapiens, HCT116 cell line
Description: HCT-116 colorectal cancer cell line is characterized by overexpression of both VEGFR-2 and c-Met TKs. Consequently, we selected it to study the cytotoxic activity of the target derivatives. We tested the effect of several concentrations of the designed derivatives on HCT-116 cells by using MTT assay.
Cell Line cells were obtained from American Type Culture Collection , cells were cultured using DMEM (Invitrogen/Life Technologies) supplemented with 10% FBS (Hyclone), 10 ug/ml of insulin (Sigma), and 1% penicillin-streptomycin. All the other chemicals and reagents were from Sigma, or Invitrogen. Plate cells (cells density 1.2 – 1.8 × 10,000 cells/well) in a volume of 100µl complete growth medium + 100 μl of the tested compound per well in a 96-well plate for 24 hours before the MTT assay .
8-After treatment of cells with the serial concentrations of the compound to be tested incubation is carried out for 48 h at 37 °C ,then the plates are to be examined under the inverted microscope and proceed for the MTT assay
The MTT method of monitoring in vitro cytotoxicity is
well suited for use with multiwell plates. For best results, cells in the log phase of growth should be employed and final cell number should not exceed 10^6 cells/cm2. Each test should include a blank containing complete medium without cells.
2. Reconstitute each vial of MTT [M-5655] to be used with 3 ml of medium or balanced salt solution without phenol red and serum. Add reconstituted MTT in an amount equal to 10% of the culture medium volume.
3. Return cultures to incubator for 2-4 hours depending on cell type and maximum cell density. (An incubation period of 2 hours is generally adequate but may be lengthened for low cell densities or cells with lower metabolic activity.) Incubation times should be consistent when making comparisons.
4. After the incubation period, remove cultures from incubator and dissolve the resulting formazan crystals by adding an amount of MTT Solubilization Solution [M-8910] equal to the original culture medium volume.
6. Spectrophotometrically measure absorbance at a wavelength of 570 nm. Measure the background absorbance of multiwell plates at 690 nm and subtract from the 450 nm measurement. Tests performed in multiwell plates can be read using the appropriate type of plate

[2] = molecular target: c-Met (Homo sapiens, UniProt P08581); details: reported dual inhibitors with α-HB group, Fig. 2; ref Yang et al, 2022; Gu et al, 2017; cited from earlier work
[3] = molecular target: VEGFR-2 (Homo sapiens, UniProt P35968); details: reported dual inhibitors with α-HB group, Fig. 2; ref Yang et al, 2022; Gu et al, 2017; cited from earlier work
[4] = tested on: HCT-116 cells; test: Apoptosis induction, Annexin V-FITC/PI staining; assay type: cell-based; details: 24 h, listed as cabozantinib
Text: There was an increase in the number of both early and late apoptotic cells of both tested compounds 3c and 3e. […] . Totally, both designed compounds 3c and 3e were able to induce remarkable apoptosis.

Row | SMILES | melting point | IC50 [1] | further results
1 | O=c1nc(-c2ccc(-n3c(=O)[nH]c4ccccc4c3=O)cc2)[nH]c(=S)[nH]1 [Compound 2a, 3-(4-(4-oxo-6-thioxo-1,4,5,6-tetrahydro-1,3,5-triazin-2-yl)phenyl)quinazolin-2,4(1H,3H)-dione] | > 300 °C | 27 ± 1.43 µM | –
2 | COCCNC(=O)Nc1nccc(Oc2ccc(NC(=O)c3sc(-c4ccccc4)nc3C)cc2)n1 [II] | – | – | IC50 [2]: 1.43 µM; IC50 [3]: 1.05 µM
3 | Cc1c(C(=O)Nc2ccc(Oc3ccnc(C(=O)NCCN4CCCCC4)c3)c(F)c2)c(=O)n(-c2ccccc2)n1C [IV] | – | – | IC50 [2]: 0.25 µM; IC50 [3]: 0.84 µM
4 | O=c1[nH]c2ccccc2c(=O)n1-c1ccc(-c2nc(=S)[nH]c(=S)[nH]2)cc1 [Compound 2b, 3-(4-(4,6-dithioxo-1,4,5,6-tetrahydro-1,3,5-triazin-2-yl)phenyl)quinazolin-2,4(1H,3H)-dione] | > 300 °C | 8.81 ± 0.47 µM | –
5 | COc1cc2nccc(Oc3ccc(NC(=O)C4(C(=O)Nc5ccc(F)cc5)CC4)cc3)c2cc1OC [Cabozantinib, cabozantinib, reference compound] | – | – | %Apoptosis %Late [4]: 32.13%

More lines, main results first:

Row | melting point | SMILES | IC50 [1] | further results
6 | 255 °C | O=C(NC(=S)Nc1ccc([N+](=O)[O-])cc1)c1ccc(-n2c(=O)[nH]c3ccccc3c2=O)cc1 [Compound 3f, 4-(2,4-dioxo-1,4-dihydroquinazolin-3(2H)-yl)-N-((4-nitrophenyl)carbamothioyl) benzamide] | 114 ± 6 µM | –
7 | 250 °C | O=C(NC(=S)Nc1ccc(Cl)cc1)c1ccc(-n2c(=O)[nH]c3ccccc3c2=O)cc1 [Compound 3e, N-((4-chlorophenyl)carbamothioyl)-4-(2,4-dioxo-1,4-dihydroquinazolin-3(2H)-yl) benzamide] | 3.4 ± 0.18 µM | –
8 | > 300 °C | CCOC(=O)c1ccc(NC(=S)NC(=O)c2ccc(-n3c(=O)[nH]c4ccccc4c3=O)cc2)cc1 [Compound 3d, Ethyl4-(3-(4-(2,4-dioxo-1,4-dihydroquinazolin-3(2H)-yl)benzoyl)thioureido)benzoate] | – | –
9 | 300 °C | O=C(NC(=S)Nc1ccc(S(=O)(=O)Nc2ncccn2)cc1)c1ccc(-n2c(=O)[nH]c3ccccc3c2=O)cc1 [Compound 3h, 4-(2,4-dioxo-1,4-dihydroquinazolin-3(2H)-yl)-N-((4-(N-(pyrimidin-2-yl)sulfamoyl)phenyl)carbamothioyl)benzamide] | 29.8 ± 1.58 µM | –
10 | 258 °C | O=C(O)c1ccc(NC(=S)NC(=O)c2ccc(-n3c(=O)[nH]c4ccccc4c3=O)cc2)cc1 [Compound 3c, 4-(3-(4-(2,4-dioxo-1,4-dihydroquinazolin-3(2H)-yl)benzoyl)thioureido)benzoic acid] | – | –
11 | 210 °C | O=C(NC(=S)Nc1ccccc1)c1ccc(-n2c(=O)[nH]c3ccccc3c2=O)cc1 [Compound 3a, 4-(2,4-dioxo-1,4-dihydroquinazolin-3(2H)-yl)-N-(phenylcarbamothioyl)benzamide] | 9.38 ± 0.5 µM | –
12 | > 300 °C | O=C(NC(=S)Nc1nc2ccccc2s1)c1ccc(-n2c(=O)[nH]c3ccccc3c2=O)cc1 [Compound 4b, N-(benzo[d]thiazol-2-ylcarbamothioyl)-4-(2,4-dioxo-1,4-dihydroquinazolin-3(2H)-yl)benzamide] | – | –
13 | > 300 °C | O=C(NC(=S)Nc1nnc(S)s1)c1ccc(-n2c(=O)[nH]c3ccccc3c2=O)cc1 [Compound 4a, 4-(2,4-dioxo-1,4-dihydroquinazolin-3(2H)-yl)-N-((5-mercapto-1,3,4-thiadiazol-2-yl)carbamothioyl)benzamide] | – | –
14 | 260 °C | O=C(NC(=S)Nc1ccc(O)cc1)c1ccc(-n2c(=O)[nH]c3ccccc3c2=O)cc1 [Compound 3g, 4-(2,4-dioxo-1,4-dihydroquinazolin-3(2H)-yl)-N-((4-hydroxyphenyl)carbamothioyl) benzamide] | 47 ± 2.49 µM | –
15 | > 300 °C | O=C(O)c1cccc(NC(=S)NC(=O)c2ccc(-n3c(=O)[nH]c4ccccc4c3=O)cc2)c1 [Compound 3b, 3-(3-(4-(2,4-dioxo-1,4-dihydroquinazolin-3(2H)-yl)benzoyl)thioureido)benzoic acid] | 53.4 ± 2.82 µM | –

Reference: PMC10616113, “Novel 3-phenylquinazolin-2,4(1H,3H)-diones as dual VEGFR-2/c-Met-TK inhibitors: design, synthesis, and biological evaluation” (Scientific Reports, 2023)
